Data taken from doi:10.1101/798769 (bioRxiv, 2019).

T1: NPDP peptide (PfCSP aa 101-116) (Plasmodium falciparum NF54)
T1 chain: NPDPNANPNVDPNANP

T2: NANP trimer peptide (NANP3) (Plasmodium falciparum)
T2 chain: NANPNANPNANP


Legend:
[1] = biological target: T1, NPDP peptide (PfCSP aa 101-116); assay: SPR
[2] = biological target: T2, NANP trimer peptide (NANP3); assay: ITC

| Binder | binding result [1] | binding result [2] |
| --- | --- | --- |
| mAb 2243 (recombinant human IgG1, kappa) (antibody, V domains shown) VH: QVQLVESGGGVVQPGRSLRLSCAASGFTFSSYGMHWVRQAPGKGLEWVAVIWYDGSNKYYADSVKGRFTISRDNSKNTLYLQMNSLRAEDTAVYYCARALDDASSTSCCALDYWGQGTLVTVSS VL: [skipping about 100 residues]TFGPGTKVDIK | binds | – |
| Fab fragment of mAb 2243 (Fab, V domains shown) VH: QVQLVESGGGVVQPGRSLRLSCAASGFTFSSYGMHWVRQAPGKGLEWVAVIWYDGSNKYYADSVKGRFTISRDNSKNTLYLQMNSLRAEDTAVYYCARALDDASSTSCCALDYWGQGTLVTVSS VL: [skipping about 100 residues]TFGPGTKVDIK | – | binds |
